# In PubChem BioAssay AID504845 (National Center for Advancing Translational Sciences (NCATS), 2011):
# In all, about 390,000 compounds went through this assay and about 150 (0.038%) were called active. The shares of active, inactive and inconclusive entries below differ from those in the screen. Calls follow the shape of the dose curve; as a rule, active = well fitted inhibition curve with a large enough effect; inconclusive = small, poorly fitted or top-dose-only effect; inactive = no such curve, though single readings can be large or run the other way. Potencies of inconclusive entries are doubtful fits and often do not repeat.
# Target: Regulator of G-protein signaling 4 (Homo sapiens) (UniProt P49798)
# Chain of UniProt P49798 (P49798 whole entry, looked up): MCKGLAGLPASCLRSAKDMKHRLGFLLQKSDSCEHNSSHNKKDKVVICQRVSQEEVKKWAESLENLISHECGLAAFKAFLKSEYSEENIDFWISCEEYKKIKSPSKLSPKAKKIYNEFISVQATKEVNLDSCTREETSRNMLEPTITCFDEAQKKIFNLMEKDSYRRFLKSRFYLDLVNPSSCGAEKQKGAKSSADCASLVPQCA
# Test: Inhibitors of Regulator of G Protein Signaling (RGS) 4: qHTS; also: nearly all actives have a fitted effect of over 75% in size
# Conditions: Transcreener GDP fluorescence polarization, RGS4-accelerated GTP hydrolysis; series mostly up to 114 µM; activity change, negative = inhibition: at the top concentration
# Outline: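 MLSMR compounds (23 nl, pin-transferred) preincubated 10 min at room temperature with a 500nM (2x) first reagent, then RGS4 at 900nM (2x) plus Transcreener GDP mix added; fluorescence polarization (620/688 nm) read before and after 90 min at 30 °C.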
# % is scaled to controls: 0 for no effect and ±100 for the full control effect; potency is read from the fitted curve at half-maximal effect; tags tell the direction and shape of the fitted curve.
Compound,Potency,"activity change, negative = inhibition"
CCOC(=O)COc1ccc(/C=C(\C#N)c2nc3ccc(C)cc3[nH]2)cc1OC,"inconclusive: 50.1 µM [inhibitor, partial curve, poor fit]",
O=C(NCc1ccccc1)C1CCCN1S(=O)(=O)c1ccc(F)cc1 (centres undefined),"inconclusive: 70.8 µM [inhibitor, partial curve, poor fit]",
Cc1ccc(-c2csc(NC(=O)Cc3ccc(F)cc3)n2)o1,"inconclusive: 44.7 µM [inhibitor, partial curve, poor fit]",
[O-]/[N+](=C/c1ccc(F)cc1)c1ccc(Cl)cc1,"inconclusive: 56.2 µM [inhibitor, partial curve, poor fit]",
CC(=O)Nc1ccc(NC(=O)CSCc2cnn(-c3ccccc3)c2-n2cccc2)cc1,"inconclusive: 79.4 µM [inhibitor, partial curve, poor fit]",
Cc1cccc(NC(=O)c2cc3c(=O)n4ccccc4nc3s2)c1,"inconclusive: 79.4 µM [inhibitor, partial curve, poor fit]",
N#CC1=C(N)SC(N)=C(C#N)C1c1ccc([N+](=O)[O-])cc1,"inconclusive: 17.8 µM [inhibitor, full curve, poor fit]",
O=C(N/N=C/C(Br)=C\c1ccccc1)c1cccs1,,inactive: -19.2%
CCSc1nnc(NC(=O)c2csc3c2CCCC3)s1,,inactive: -33.7%
CCN1CCN(Cc2ccc(NC(=O)c3ccc(C)c(NC(=O)C(=O)c4c[nH]c5ccccc45)c3)cc2C(F)(F)F)CC1,"inconclusive: 79.4 µM [inhibitor, partial curve, poor fit]",
Cn1c(C(=O)NCC2CCCO2)cc2oc3ccccc3c21 (centres undefined),,inactive: 2.69%
CN1CCCCCC1=Nc1ccc([N+](=O)[O-])cc1,,inactive: 4.66%
c1ccc(CN2CCN(c3nc(-c4ccccc4)nc4ccccc34)CC2)cc1,,inactive: 13.8%
O=C1c2cccc3c([N+](=O)[O-])ccc(c23)C(=O)N1c1ccccn1,,inactive: 5.08% [at 11.4 µM]
O=C(CSc1nc2ccccc2c(=O)n1-c1ccc(F)c(Cl)c1)Nc1cccc(S(=O)(=O)N2CCOCC2)c1,"inconclusive: 79.4 µM [inhibitor, single point]",
CN1c2ccccc2N(C)C1(C)c1cccc2ccccc12,"inconclusive: 70.8 µM [inhibitor, partial curve, poor fit]",
COc1ccc(CCN2CN(S(=O)(=O)c3ccc(OC)cc3)c3nc4ccccc4nc32)cc1,"inconclusive: 100 µM [inhibitor, partial curve, poor fit]",
Cc1ccc(-c2oc3ncnc(N)c3c2-c2ccc(C)cc2)cc1,,inactive: 10.3%
COc1cc(S(=O)(=O)NCC2CCCO2)c(OC)cc1Cl (centres undefined),"inconclusive: 100 µM [inhibitor, single point]",
Cc1ccc2c(c1)Sc1ccccc1CC2=O,"inconclusive: 89.1 µM [inhibitor, single point]",
O=c1oc2c3c4c(cc2s1)CCCN4CCC3,"inconclusive: 50.1 µM [inhibitor, partial curve, poor fit]",
CN(C)CCOCCOc1ccccc1-c1ccccc1,,inactive: -23.4%

Compound,Potency,"activity change, negative = inhibition"
CN(CCOc1ccccc1)C(=O)c1cc(-c2ccco2)nc2ccccc12,"inconclusive: 79.4 µM [inhibitor, partial curve, poor fit]",
CS(=O)(=O)c1ncc(Cl)c(C(=O)N2CCN(c3cccc(Cl)c3)CC2)n1,"inconclusive: 28.2 µM [inhibitor, full curve, poor fit]",
CCOC(=O)/C(=C/c1ccc(OC(=O)c2ccccc2)cc1)C(C)=O,"inconclusive: 20 µM [inhibitor, full curve, poor fit]",
Cc1ccc(OCc2ccc(C(=O)Nc3ccc(C(N)=O)cc3)o2)c([N+](=O)[O-])c1,"inconclusive: 50.1 µM [inhibitor, partial curve, poor fit]",
COCCCNc1nc2c(c(=O)n(Cc3ccccc3)c(=O)n2C)n1C,,inactive: -14.3%
O=C(COC(=O)c1cc(S(=O)(=O)N2CCCCC2)ccc1N1CCOCC1)c1ccccc1,"inconclusive: 79.4 µM [inhibitor, partial curve, poor fit]",
N#CCC(=O)NC(=O)NCC1CC1,"inconclusive: 39.8 µM [inhibitor, partial curve, poor fit]",
COc1ccc(CCN2C(=O)C=CC2=O)cc1OC,"inconclusive: 31.6 µM [inhibitor, partial curve, poor fit]",
COc1ccc(-c2nn(CC(=O)NCCc3ccccc3)c(=S)n2C)cc1,,inactive: 5.9%
c1ccc(N2CCN(c3c4c(nc5ncnn35)CCC4)CC2)cc1,,inactive: -37.3%
OCCC1CN(Cc2nc(-c3ccccc3)cs2)CCN1C1CCCC1 (centres undefined),,inactive: -17.4%
CC1CCN(C(=O)CCS(=O)(=O)c2cc3c(cc2Cl)NC(=O)CO3)CC1,"inconclusive: 56.2 µM [inhibitor, partial curve, poor fit]",
CC(OC(=O)c1ccc(S(=O)(=O)NCc2ccco2)cc1)C(=O)Nc1ncc(Cl)cc1Cl (centres undefined),"inconclusive: 100 µM [inhibitor, single point]",
CCNc1ccc(Br)cc(C(=O)/C=C/c2ccc(Cl)cc2Cl)c1=O,"inconclusive: 44.7 µM [inhibitor, partial curve, poor fit]",
CCN(CC)c1ccc(C(=C2C=CC(=[N+](CC)CC)C=C2)c2ccccc2)cc1,"inconclusive: 79.4 µM [inhibitor, partial curve, poor fit]",
O=C(Nc1ccc(C(=O)NCCCN2CCN(c3ccccc3)CC2)cc1)C1=CSCCO1,,inactive: -9.13% [at 56.9 µM]
O=C(NC1CCCC1)c1ccc2c(=O)n(Cc3ccccc3)c(SCc3ccc([N+](=O)[O-])cc3)nc2c1,,inactive: -5.83%
CCOc1ccc2oc(C(=O)OCC(=O)NC3CC3)c(C)c2c1,,inactive: 9.72%
CCN(CC)S(=O)(=O)c1cccc(C(=O)NC(C(=O)Nc2nnc(C)s2)C(C)C)c1 (centres undefined),"inconclusive: 79.4 µM [inhibitor, single point]",
CCOc1ccc(-c2nnc(SCC(=O)NC3CCCCC3)nc2-c2ccc(OCC)cc2)cc1,,inactive: -16.9%
COc1ccc2c(c1)Cc1sc(NC(=O)c3ccccc3C)nc1-2,"inconclusive: 56.2 µM [inhibitor, partial curve, poor fit]",
O=C(NCCc1ccc(Cl)cc1)c1cc(-c2ccccc2)n[nH]1,"inconclusive: 79.4 µM [inhibitor, partial curve, poor fit]",

Compound,Potency,"activity change, negative = inhibition"
CCC(C)NC(=O)c1ccc(C2SCC(=O)N2Cc2ccccc2)cc1 (centres undefined),"inconclusive: 50.1 µM [inhibitor, partial curve, poor fit]",
COc1cc2c(cc1OC)C(c1cccc(OC)c1OC)CC(=O)N2 (centres undefined),"inconclusive: 89.1 µM [inhibitor, single point]",
CC(=O)c1ccc(NC(=O)Nc2ccc3snnc3c2)cc1,"inconclusive: 39.8 µM [inhibitor, partial curve, poor fit]",
N#Cc1c(NC(=S)NC(=O)c2ccccc2)sc2c1CCC2,"inconclusive: 79.4 µM [inhibitor, partial curve, poor fit]",
COc1cccc(CN(C)C(=O)Cc2c[nH]c3ccccc23)c1OC,,inactive: -27.6%
O=C(COC(=O)C1CCCCC1)Nc1ccccc1OC(F)F,"inconclusive: 28.2 µM [inhibitor, full curve, poor fit]",
CC(C)=CCC/C(C)=C/CNC(=O)C[C@H]1C[C@H](C(=O)N2CCOCC2)[C@@]2(CCC3CCCC3)c3[nH]c4cc(-c5ccco5)ccc4c3CCN2C1=O,"inconclusive: 31.6 µM [inhibitor, partial curve, poor fit]",
CNC(=O)COC(=O)/C=C/c1cn(-c2ccccc2)nc1-c1ccc(C)o1,"inconclusive: 79.4 µM [inhibitor, partial curve, poor fit]",
O=C(N/N=C/c1ccc(OC(=O)c2cccs2)cc1)c1ccc(F)cc1,"inconclusive: 56.2 µM [inhibitor, partial curve, poor fit]",
CC(=O)N1CCOc2ccc(S(=O)(=O)N3CCC(C)CC3)cc21,,inactive: 0.28% [at 56.9 µM]
O=C(/C=C\c1ccco1)c1ccc(NC(=O)c2ccco2)cc1,"inconclusive: 89.1 µM [inhibitor, single point]",
CCOC(=O)c1cc2c(=O)n3ccccc3nc2n(Cc2ccco2)c1=NC(=O)c1ccc(Br)cc1,"inconclusive: 28.2 µM [inhibitor, full curve, poor fit]",
c1ccc(N2CCN(c3nc4ccccc4n4nnnc34)CC2)cc1,"inconclusive: 89.1 µM [inhibitor, single point]",
Cc1nn(Cc2cccc(C(=O)Nc3ccn(Cc4c(F)c(F)cc(F)c4F)n3)c2)c(C)c1[N+](=O)[O-],"inconclusive: 31.6 µM [inhibitor, full curve, poor fit]",
O=C(CSc1oc(-c2ccccc2)nc1S(=O)(=O)c1ccc(Br)cc1)c1ccccc1,"inconclusive: 70.8 µM [inhibitor, partial curve, poor fit]",
Cc1nc2ccc(NC(=O)c3ccc(Cl)c(NC(=O)c4cccs4)c3)cc2s1,"inconclusive: 89.1 µM [inhibitor, single point]",
COC(=O)CNC(=O)Cn1ccc2ccccc2c1=O,,inactive: 8.16%
CCc1ccc(NC(=O)CN(C)S(=O)(=O)c2ccc3c(c2)c(=O)n(C)c(=O)n3C)cc1,,inactive: -4.92%
O=C(Nc1ccccc1)N1CCCC(c2nc(-c3ccc(F)cc3)no2)C1 (centres undefined),,inactive: 18.8%
O=C(O)/C(=C/c1c(C(=O)O)[nH]c2cc(Cl)cc(Cl)c12)c1ccccc1,"inconclusive: 0.15 µM [inhibitor, full curve, poor fit]",
